Results on 6 molecules are retold here after PMC12136788.

This is one part of the list.

B1: ENSG00000122863:stop:overlap|stop_codon|ENSG00000122863|stop_codon|NA|stop_codon (ssRNA)
RNA: GGGAGUUCUACAGUCCGACGAUCCCGCCCUCACCAACCGCUCAGUCAGCCUGCUGGAGGAGAGGGGCACCUUCUGGGUCACGUAGGGGGGCCGGGGCCCCGUAUGCCCCUCCUCGUGAAAGGCCUGCCCCGUCUUUCUGCCGCCAACAGAGGAUUGAGCAUCA
B2: chr3:125012942:125013043:-|CDS|ENSG00000173706|msi1|total|mutant (ssRNA)
RNA: GGGAGUUCUACAGUCCGACGAUCGCCUCUUAUGACCACUCCUGGCACCCUGUCAAGCACAGCAUCUCUGGUCACUGGCCCUACCGCCGUACAGACUACAGCUGGAAAACAGCUCUCGCUGACCCAUCCUGAAAUACCCGUUCCCAACAGAGGAUUGAGCAUCA
B3: chrX:24560996:24561098:-|3pUTR|ENSG00000102230|unk|FALSE|unique (ssRNA)
RNA: GGGAGUUCUACAGUCCGACGAUCACUCAAGACUUUUUACAGAGAACUGUGGGCUCAGUUAUGAUCUCAGCAUCUGAAUGGUCUAGGUAGUAUCACCAUUAUCUCUGGCCCUAGGUUUGCCAAGUAGGAUGAAGACUCUAAGUGCAACAGAGGAUUGAGCAUCA
B4: chr10:29523788:29523889:-|CDS|ENSG00000197321|unk|total|mutant (ssRNA)
RNA: GGGAGUUCUACAGUCCGACGAUCAAUGCAAGUGCCACUGACUAUAAGUUUUCUUCUUCAACCGAAAAUUCGGACUCUCCAGUCCGAAGCAUUCUGAAAUCGCAAGCUUGGCAGCCUUUGGCCGAGGGCCGCGAGAACAAGGGACAACAGAGGAUUGAGCAUCA
B5: chr15:43232589:43233190:-|three_prime_utr|ENSG00000104055|control|control|control (ssRNA)
RNA: GGGAGUUCUACAGUCCGACGAUCGCUCCAGCAAGAGCCACAGAGGGGAUGACGUGUUCAUUUUCUGUCUCUCCUGACUCCACUAGAAAUUUAAGCUCCAUGAGGGCAAAGACUUUGCUUUGUUUACUACCCCUAUACUCAGAACAACAGAGGAUUGAGCAUCA
B6: chr1:214663888:214664008:+|3pUTR|ENSG00000117724|msi1|FALSE|bound_elsewhere (ssRNA)
RNA: GGGAGUUCUACAGUCCGACGAUCAGGAGAAAACAAUUCCUUAGAAGUCUUAAAUAUAUUGUACUCUUUAGAUCUCCCAUGUGUAGGUAUUGAAAAAGUUUGGAAGCACUGAUCACCUGUUAGCAUUGCCAUUCCUCUACUGCACAACAGAGGAUUGAGCAUCA

The target of the experiment is MSI1 full-length (mouse, UniProt Q61474 1-362). The experiment in a line: nsRBNS (natural sequence RNA bind-n-seq); RBNS binding buffer (assumed for nsRBNS): 25 mM Tris pH 7.5, 150 mM KCl, 3 mM MgCl2, 0.01% Triton X-100, 500 ug/ml BSA, 20 U/ml SUPERase-In, 4 C; UNK is unkempt and MSI1 is Musashi-1; names of the RNAs are library labels; protein concentration not given here; high values mean tight binding.
Sequence of UniProt Q61474 (Q61474 whole entry): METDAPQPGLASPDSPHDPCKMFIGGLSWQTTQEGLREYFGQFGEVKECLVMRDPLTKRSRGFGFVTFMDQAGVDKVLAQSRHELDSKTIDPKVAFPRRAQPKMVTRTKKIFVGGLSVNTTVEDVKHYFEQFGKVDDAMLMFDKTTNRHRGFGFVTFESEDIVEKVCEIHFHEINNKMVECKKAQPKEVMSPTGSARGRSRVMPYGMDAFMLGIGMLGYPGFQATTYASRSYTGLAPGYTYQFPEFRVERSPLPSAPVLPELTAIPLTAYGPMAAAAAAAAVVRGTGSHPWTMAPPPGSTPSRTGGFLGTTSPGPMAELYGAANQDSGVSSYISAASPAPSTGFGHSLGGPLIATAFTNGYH
For the molecule B1, the binding signal was 0.62 enrichment R.
In the case of B2 it was 0.515 enrichment R; in that of B3, 1.2 enrichment R.
As to B4, the binding signal amounted to 0.214 enrichment R.
In the case of B5 it was 1.39 enrichment R.
In the case of B6 it was 16.4 enrichment R.
